Assay results: the supplement of paper PMC11417369
± gives the standard deviation of the averaged measurements. The list shows a part of the results.

Test system: PfAP2-I AP2 domain 3 (GST-tagged)
Test: gcPBM binding intensity (ln(normalized median fluorescence intensity)); higher = stronger DNA binding
In short: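 An Agilent 4 × 180k array of primer-extended double-stranded 36-bp intergenic genomic probes, with negative controls, was incubated for 1 h with GST-tagged P. falciparum DNA-binding domains expressed in E. coli. Alexa488 anti-GST antibody detected bound protein, scanned at 488 nm. Binding intensity is the highest Masliner-normalised natural-log median intensity across replicate spots of either probe orientation.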

Sequence | gcPBM binding intensity (ln)
ACTAATGTAAAAGTTTGTACATATATTGAGAATTAT [XGTACX_site7439] | 7.69 ± 0.52
AAGAAAAAAACAAAAAAAAAAAAAAAAATTCTTATT [TGCATGCA_negctrl_site504] | 7.07 ± 0.47
CTATAATATTAGTGCACACACAAAAATGTACTAAAC [CACACA_site6442] | 11.6 ± 0.62
TCGCAAATAAATTAATGTACACATATATATATATAT [XGTACX_site5145] | 9.39 ± 0.56
TTTTCAATTTTTTATGAACACACAAAAAAAAAAAAA [CACACA_site8808] | 8.11 ± 0.61
TATTGATAATTTTATATATACATACATAAATAAATA [CACACA_negctrl_site1687] | 7.28 ± 0.44
ATAAACTGAGTGGTTACACACAAAACCAATAATTTT [CACACA_site3478] | 7.61 ± 0.64
AAATGTATATATGTATGTACATATATATATATATAT [XGTACX_site5778] | 9.3 ± 0.71
AGTTTCTATTTAGTGTGTACTTAAGAAAAATATCTC [XGTACX_site82] | 7.88 ± 0.4
ATATATATATATATATGTACTCATATTTTATTATTT [XGTACX_site898] | 9.28 ± 0.35
TAAAGCGACATTTGGAAAATATATATCCTAGCATTT [CACACA_negctrl_site327] | 7.35 ± 0.78
AAAATACACAGACACACACACATATAAATAAATATT [CACACA_site7871] | 7.93 ± 0.4
ATTCGTTATAAAATATGTACATAAATATATATATAT [XGTACX_site2819] | 9.095 ± 0.035
TATTCGTGCAATAGTAGTACACTTAAAAATTATTCA [XGTACX_site269] | 10.5 ± 0.42
ACATAGATGCATATCACACATAATAATATTGTCGTA [CACACA_site4819] | 7.68 ± 0.67
TTATAAAATAAACTTACACACATGAAATATTATATT [CACACA_site1945] | 7.39 ± 0.48
TATTTGTGGATTTTTACACACATTAATATATATATA [CACACA_site3375] | 8.75 ± 0.042
AGGAAAATTATGAATGGTACAGAATATATTAGGAGA [XGTACX_site6282] | 8.05 ± 0.74
AAACAAAATAAATATGAACACACACCGTTATGCCTT [CACACA_site8347] | 7.61 ± 0.78
AATAAGTTATTATTTTGTACACATAAATAATACGTT [XGTACX_site814] | 7.74 ± 0.49
GCACTAAAAAAATAAACACACAGATTTATATAATAT [CACACA_site1381] | 7.76 ± 0.54
ATATATGCATATATTTGTACACATTTTTTTACATAA [XGTACX_site4624] | 8.27 ± 0.52
AAAAAAACGTAAAAATGTACTTTTTGTATATAACCT [XGTACX_site7950] | 7.71 ± 0.47

Sequence | gcPBM binding intensity (ln)
AAGGAACTATAATATACACACATAAGTGTACTTATA [CACACA_site7816] | 7.9 ± 0.057
ATTTCTTTTGTTATAGTGCATAATATTTATGTACGT | 10.8 ± 0.49
AAAGAAAGAAAGAAAAGTACTTAAACTTTTAAAAAT [XGTACX_site8531] | 7.51 ± 0.69
AATAATAATAAAAATAAACACACATATATATGTATA [CACACA_site8928] | 7.57 ± 0.28
TAACTATCATGTATTACACACAATATTTATTATATA [CACACA_site2701] | 7.88 ± 0.46
TTAAATAAATAAATAACACACATATAAAAATAACGC [CACACA_site3266] | 8 ± 0.56
ATATTAATATATAGAAGTACTCACATGTTAATATAA [XGTACX_site7323] | 7.83 ± 0.47
AAGACAAATTTTACATGTACAAATATATTACATATA [XGTACX_site7060] | 7.79 ± 0.57
AAGAAAAAAAGCAACACACGTACCAACACAATTATG [CACACA_site3133] | 8.15 ± 0.65
TATTCAAATTTCCACATACACACCTTGTAGATATAT [CACACA_site281] | 7.97 ± 0.45
GTAGACTGAAACCACACACACATATATATATATATT [CACACA_site605] | 7.89 ± 0.59
TAATATTTCGCACTGTGTACTGAAATATTTATATCG [XGTACX_site516] | 8.99 ± 0.028
ATAATAAGACGATAAGGTACACAAAATGTTAATATA [XGTACX_site6984] | 7.79 ± 0.58
TACTAATATGATATATAAATATTGTTATATAATAAT [XGTACX_negctrl_site227] | 7.58 ± 0.13
AAAATAAAAGAAAAAAGTACAAAATCAGATTAATTA [XGTACX_site8413] | 7.44 ± 0.71
TGAATACAAATTTACGCATGTAATTTCCAGAGGGAG [TGCATGCA_site769] | 7.87 ± 0.57
TATAAAATATAATTAGCACACATATATAAAATATAT [CACACA_site9355] | 8.2 ± 0.028
AATATATGTAATATATGTACTTAATTATATTTTAAT [XGTACX_site4382] | 7.54 ± 0.36
ACATATGAATATAATACACACTTGTATTATTAATAT [CACACA_site8546] | 7.96 ± 0.49
TTACCTTTATTGTATGAACACACATAAGCTGATACA [CACACA_site9334] | 7.86 ± 0.47
AAAAAAAAAAAAAGAGTGCAAACTATGATAATTTAA | 9.22
TATATATATACATATTGTACATGTGTATATTTTTTT [XGTACX_site361] | 8.6 ± 0.45
TTAGTTATTAAAAAAAGTACATAAGTAGATATCATC [XGTACX_site8712] | 7.79 ± 0.5

Sequence | gcPBM binding intensity (ln)
AAAATTTAATATAATGCACACATAAAAAAAAAAAAA [CACACA_site7923] | 11 ± 0.93
CCATTTTTTTTATACGCACACGTCATACTTTTAAAA [CACACA_site4988] | 9.05 ± 0.15
GAATAATATGGACATACACACATATACATACATATA [CACACA_site2114] | 7.96 ± 0.39
TTATTTCATTCTTGAAGTACGTGAAAAATGAAAACA [XGTACX_site4089] | 8.12 ± 0.13
CGTAATAAAAACAAATGTACATGACCTGGACAGGTT [XGTACX_site6560] | 7.7 ± 0.66
GTATATTTTTAAAGGTGTACTTTTTTTTTTTTTTTT [XGTACX_site721] | 8.85 ± 0.44
ATATAAAACTATAATACACACATAAAATATATTATA [CACACA_site6588] | 7.89 ± 0.3
ATAAATATATATATAGTGCATATAAGCCACCTTCAA [GTGCAC_site9628] | 10.7 ± 0.11
TATATAATACAACATGCACACATATATATGTGAATC [CACACA_site8794] | 8.37 ± 0.21
TATATTTATTTATTCTGTACTGAAGACAGTTATGTA [XGTACX_site8857] | 7.62 ± 0.41
ATATATTTTATATAATGTACATAAACCGCACACATA [XGTACX_site6061] | 8.29 ± 0.28
TTTCAAATTTAATACACACACAAGTATATATCTATC [CACACA_site7782] | 7.73 ± 0.52
ATTTAAAAAAAAAAAAAAAAAAAAAAAAAAAGAAAA [CACACA_negctrl_site722] | 7.49 ± 0.49
TTTAATATTAGCATATGTACACAAATCACACGGAAA [XGTACX_site2473] | 8.26 ± 0.33
TATATTATGACCACCACACACCTATACACATAACAT [CACACA_site7199] | 8.41 ± 0.26
TAATCCTTTCAATATTGTACACATTTGTGTTAAGAA [XGTACX_site1275] | 8.05 ± 0.22
AACGCACGAGGACACACACACATATTTATATTTATA [CACACA_site6608] | 8.23 ± 0.23
TTTTTTAACTGTATGATGTTATATTAAAAATAAAAA [GTGCAC_negctrl_site463] | 7.67 ± 0.36
ATTTATATATAATATACACACATATAATACCCATAT [CACACA_site4548] | 7.82 ± 0.52
GGACAAGAATAGTGCACATGCAATGTTATTTTTTAT [TGCATGCA_site450] | 10.7 ± 0.35
ATTATAACCATATACACACCCATATAAATAAATATA [CACACA_site6926] | 7.88 ± 0.45
CGTTTTAATAAGATCACACATATAATATATATATAT [CACACA_site5159] | 8.82 ± 0.092
ATATTAAATGTTATCACACACATAATTACTTCCATA [CACACA_site7160] | 7.87 ± 0.69

Sequence | gcPBM binding intensity (ln)
TATTAAATGGCCATTACATGCAATTATTTCTAATAA [TGCATGCA_site275] | 7.52 ± 0.45
TCAAATATATAGAATACACACATGGATATAAGAAAT [CACACA_site4065] | 8.11 ± 0.59
ATTTAATTTGTTCTTACACACACATATATATATATT [CACACA_site8310] | 8.22 ± 0.76
ATAATATAAATACAAACACACAATTGCGTCCACATT [CACACA_site5039] | 7.95 ± 0.54
TCATACGAAATATAAACACACATACAATAAATAAAT [CACACA_site5156] | 7.81 ± 0.52
GATAGAAAAAAATAATGTACACACACATATATGTTT [XGTACX_site392] | 7.78 ± 0.55
GGCAGCAATTTAGTTACACACATATATAGGTATACA [CACACA_site76] | 7.99 ± 0.43
TACACATACCCATACACACGCATAGAAACATACGAA [CACACA_site5212] | 7.86 ± 0.3
TATTTTTATTTTAATTGTACTTTTTAATTAATAATA [XGTACX_site8302] | 7.8 ± 0.45
TTTCTTTTTTCTGTTATTATTATAAAACGATATTTA [TGCATGCA_negctrl_site167] | 7.64 ± 0.46
TTTTTTTTTTTTATATGTACTAATAATCTTTTTTTT [XGTACX_site3552] | 7.96 ± 0.71
GCTGAAAGGATAAAGGTGCATATTTTTTAAAAAATT [GTGCAC_site9487] | 10.4 ± 0.28
AATATTTTATATGTAGTGCATTACTATAGGATTTAT [GTGCAC_site9424] | 11.4 ± 0.74
ACAAAATAAACGGCTGCACACAAGAAGCACAATATT [CACACA_site3690] | 8.48 ± 0.79
TGTGTCAAATAATTAATGTCATATATATTTTGTATA [CACACA_negctrl_site1479] | 7.63 ± 0.37
TGCTTATATCTTATAATATTTATACATCATAATAAG [CACACA_negctrl_site629] | 7.61 ± 0.6
GCATATAAAATAAATCGTACATGTAAAACATAATTA [XGTACX_site7077] | 7.71 ± 0.32
TATAATATAATATTTTGTACATATGATAAAAAAAAA [XGTACX_site6858] | 7.75 ± 0.63
ACACATATAAATAAAACATGCATATGTAAATATATA [TGCATGCA_site403] | 7.57 ± 0.54
TCAAAATGTTACAAATTATGTTGGCTAAAATTTTAA [TGCATGCA_negctrl_site188] | 7.33 ± 0.67
